Source: the supplement of paper PMC3334620
Whole data set: some 33,000 sequences, median “E-score (-0.5 to 0.5)” near -0.035, cut for the highest 2% near 0.35. The list shows a part of the results.

The sequences below were run against T1, Pdr3 (UniProt P33200) (assay: PBM E-score (8-mer binding enrichment) (E-score (-0.5 to 0.5)); higher = stronger / more preferred TF binding; most listed sequences are background and not binding sites). Details: protein concentration: 200 nM; construct: GST-full length.
T1 sequence: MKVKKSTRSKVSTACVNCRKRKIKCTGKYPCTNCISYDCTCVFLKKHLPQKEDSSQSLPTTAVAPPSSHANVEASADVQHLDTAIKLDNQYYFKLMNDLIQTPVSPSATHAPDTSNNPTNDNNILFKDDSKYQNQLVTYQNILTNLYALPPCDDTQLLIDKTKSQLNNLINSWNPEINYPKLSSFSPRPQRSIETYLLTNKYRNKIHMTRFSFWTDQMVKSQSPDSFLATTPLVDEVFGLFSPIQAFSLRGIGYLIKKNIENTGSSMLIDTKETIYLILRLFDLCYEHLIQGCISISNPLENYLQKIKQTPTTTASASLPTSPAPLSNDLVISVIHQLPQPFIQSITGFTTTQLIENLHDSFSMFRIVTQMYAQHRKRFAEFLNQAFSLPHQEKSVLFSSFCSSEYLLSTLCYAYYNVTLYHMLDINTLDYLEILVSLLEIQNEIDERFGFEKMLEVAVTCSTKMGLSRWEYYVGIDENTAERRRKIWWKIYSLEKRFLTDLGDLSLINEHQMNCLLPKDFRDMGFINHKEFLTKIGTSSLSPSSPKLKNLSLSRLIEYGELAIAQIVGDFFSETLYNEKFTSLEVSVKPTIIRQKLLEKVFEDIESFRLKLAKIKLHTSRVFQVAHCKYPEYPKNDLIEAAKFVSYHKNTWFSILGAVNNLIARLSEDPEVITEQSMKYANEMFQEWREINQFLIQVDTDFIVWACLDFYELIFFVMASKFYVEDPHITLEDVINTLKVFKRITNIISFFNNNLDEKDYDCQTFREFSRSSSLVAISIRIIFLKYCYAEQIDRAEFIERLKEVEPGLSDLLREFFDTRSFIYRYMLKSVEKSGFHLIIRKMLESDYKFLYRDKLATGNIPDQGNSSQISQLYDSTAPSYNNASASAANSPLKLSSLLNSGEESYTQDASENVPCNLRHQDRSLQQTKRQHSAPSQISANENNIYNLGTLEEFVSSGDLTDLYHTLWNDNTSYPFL
How it was run: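 Full-length yeast transcription factors or their DNA-binding domains, GST-tagged and expressed with PURExpress, were applied at about 100-200 nM to universal all-10-mer Agilent arrays. These arrays had been made double-stranded by primer extension on fresh or once-stripped slides. Detection used fluorescent anti-GST, normalisation used masliner, and E-scores for ungapped eight-base words pooled with reverse complements came from the Universal PBM Analysis Suite.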

Compared with AGTGCTGC, CAGTTATC is lower in “PBM E-score” value: -0.0743 for the first, -0.11 for the second.

First: AGCGGCCA
Second: CGATCCCC
The “PBM E-score” value of the first is lower: -0.0085 for the first, 0.0699 for the second.

Going from AAAATAGA to ATTCAGTC, the “PBM E-score” value falls from 0.0344 to -0.0119.

Compared with AAATCACA, GATGCTAC is higher in “PBM E-score” value: -0.174 for the first, -0.0767 for the second.

First: CCCGTGCC
Second: ACGAGAGA
The “PBM E-score” value of the first is higher: 0.231 for the first, -0.0507 for the second.

Compared with ATGATGGC, AGCTACAA is lower in “PBM E-score” value: 0.0224 for the first, -0.109 for the second.

Going from ACATGATG to AATTACGG, the “PBM E-score” value rises from -0.121 to 0.144.

Compared with ATAGAATC, AACTCGGT is lower in “PBM E-score” value: -0.0738 for the first, -0.0782 for the second.

Compared with AATGAAAT, TCTCTGAA is lower in “PBM E-score” value: 0.0416 for the first, -0.254 for the second.

Going from GCTCTACC to AAAAAGAA, the “PBM E-score” value rises from -0.226 to 0.00545.

First: AGTATCCC
Second: AACATTGT
The “PBM E-score” value of the first is higher: 0.0316 for the first, -0.043 for the second.

Going from AACCCATA to GCTCCACC, the “PBM E-score” value falls from 0.0783 to -0.175.

Going from ACCCCTCG to AGCTCAAC, the “PBM E-score” value rises from -0.00604 to 0.041.

Compared with AGTGACTG, ACCGTCGG is higher in “PBM E-score” value: -0.158 for the first, 0.157 for the second.

First: ATCGCCGG
Second: GTTTTTAA
The “PBM E-score” value of the first is higher: 0.373 for the first, -0.0972 for the second.

Going from GCGTGGAA to GTACAAAC, the “PBM E-score” value rises from 0.0102 to 0.0119.

Going from GGCATGTA to TATGGTAA, the “PBM E-score” value rises from 0.00346 to 0.0412.

Compared with ATAATTAG, ACCATGTG is lower in “PBM E-score” value: 0.0627 for the first, -0.159 for the second.

First: TCCCATCA
Second: AAAGCGTC
The “PBM E-score” value of the first is lower: -0.209 for the first, -0.185 for the second.

Compared with AGCCCGGC, AAAGTACT is lower in “PBM E-score” value: 0.264 for the first, -0.0862 for the second.

Going from CCCACAGC to CATCCACC, the “PBM E-score” value rises from -0.262 to -0.0102.

Going from GTAAGAAA to CCAGACCG, the “PBM E-score” value rises from 0.00091 to 0.0829.

Compared with CATAACCA, GTGAGTCA is lower in “PBM E-score” value: -0.072 for the first, -0.211 for the second.

Compared with ATTAGTGA, AACGAGTC is lower in “PBM E-score” value: 0.0666 for the first, -0.165 for the second.

Going from AGCATTGG to AGCCTCGC, the “PBM E-score” value rises from -0.2 to -0.122.

Compared with GTCAAGTA, AAAGAGTG is higher in “PBM E-score” value: -0.325 for the first, -0.191 for the second.

Compared with CACTGCGC, GTCCACTA is lower in “PBM E-score” value: -0.052 for the first, -0.141 for the second.

Going from AGTAAAAG to CGAAAGTC, the “PBM E-score” value falls from 0.104 to -0.0173.

First: CAAAAGTG
Second: CGCTGTCC
The “PBM E-score” value of the first is lower: -0.092 for the first, 0.153 for the second.

Going from GAGACTCC to AGGAGAGA, the “PBM E-score” value falls from 0.0113 to -0.191.

Going from TGGAAGAA to ATCATGCC, the “PBM E-score” value falls from 0.0835 to -0.0715.

First: ACTCTACC
Second: GGTGGTAA
The “PBM E-score” value of the first is lower: -0.0156 for the first, 0.193 for the second.

First: AACCCAGG
Second: AGTCGGTA
The “PBM E-score” value of the first is higher: -0.12 for the first, -0.161 for the second.

First: ATTGCGAA
Second: GAGCTTTA
The “PBM E-score” value of the first is lower: -0.0818 for the first, -0.0106 for the second.

First: GCGGGACC
Second: TAGACGGA
The “PBM E-score” value of the first is lower: 0.323 for the first, 0.328 for the second.

First: AAGCTGCT
Second: ACACGTAG
The “PBM E-score” value of the first is higher: -0.0969 for the first, -0.284 for the second.

First: CCTCGAGA
Second: ACCTCACT
The “PBM E-score” value of the first is higher: -0.0189 for the first, -0.13 for the second.

Compared with ACACATAA, CCCCTTAA is lower in “PBM E-score” value: -0.0675 for the first, -0.204 for the second.

Compared with TCTCGGCA, AACGGGAG is lower in “PBM E-score” value: 0.217 for the first, 0.179 for the second.

Going from TCACGCGA to GCACGCAC, the “PBM E-score” value falls from -0.0116 to -0.164.

Going from AGGGGAGA to AGTGTACA, the “PBM E-score” value falls from -0.195 to -0.202.

First: TTTTAAAA
Second: CGCAGTCC
The “PBM E-score” value of the first is lower: -0.0969 for the first, -0.00097 for the second.

Compared with GAGGCTTA, CTTCCAAC is higher in “PBM E-score” value: -0.117 for the first, 0.0212 for the second.

Compared with GTGGCTTA, CGGTAGGC is higher in “PBM E-score” value: -0.231 for the first, -0.0277 for the second.

Going from CGTAGCAA to CGGCGTTC, the “PBM E-score” value rises from -0.128 to 0.127.

Compared with GCGGAATA, GCATGAAC is lower in “PBM E-score” value: 0.398 for the first, 0.12 for the second.

Going from CAAGACGG to ACCGAATA, the “PBM E-score” value falls from 0.0936 to -0.0346.
